In patent US20200079850A1 one finds Bmax and Kd data, which are given here for 3 molecules.

First the molecules themselves.
B1: PD-1/LAG3 Bi-specific Construct A: aPD1 1353-G10 scFv_zwB × aLAG3 Fab_zwA (bispecific antibody, human IgG1, kappa)
scFv: MEVQLVQSGAEVKKPGASVKVSCKASGYRFPHYGISWVRQAPGQGLEWMGWISAYNGNTNYAQKLQGRVTMTTDTSTNTAYMELRSLRSDDTAVYYCARDVDYGTGSGYWGQGTLVTVSSGGGGSGGGGSGGGGSSYELTQPPSVSVSPGQTARITCSGDALPKQYAYWYQQKPGQAPVMVIYKDTERPSGIPERFSGSSSGTKVTLTISGVQAEDEADYYCQSADNSITYRVFGGGTKVTVLAAGSDQ[no letters for human IgG1 Fc with changes]
heavy: MQVQLVESGGGVVQPGRSLRLSCAASGFTFSSYGMHWVRQAPGKGLEWVAVIWYDGSYKYYADSVKGRFTISRDNSKNTLYLQMNSLRAEDTAVYYCAREEAPENWDYALDVWGQGTTVTVSSASTKGPSVFPLAPSSKSTSGGTAALGCLVKDYFPEPVTVSWNSGALTSGVHTFPAVLQSSGLYSLSSVVTVPSSSLGTQTYICNVNHKPSNTKVDKKVEPKSCDKTHTCPPCPAPELLGGPSVFLFPPKPKDTLMISRTPEVTCVVVDVSHEDPEVKFNWYVDGVEVHNAKTKPREEQYNSTYRVVSVLTVLHQDWLNGKEYKCKVSNKALPAPIEKTISKAKGQPREPQVYVYPPSREEMTKNQVSLTCLVKGFYPSDIAVEWESNGQPENNYKTTPPVLDSDGSFALVSKLTVDKSRWQQGNVFSCSVMHEALHNHYTQKSLSLSPGK
light: [no letters for about 100 residues][no letters for about 120 residues]
B2: PD-1/LAG3 Bi-specific Construct B: aPD1 1353-G10 scFvFc zwB R28T/P30D/H31S V262E; aLAG3 1449-G09.2 Fab zwA V262E (bispecific antibody, human IgG1, kappa)
scFv: EVQLVQSGAEVKKPGASVKVSCKASGYTFDSYGISWVRQAPGQGLEWMGWISAYNGNTNYAQKLQGRVTMTTDTSTNTAYMELRSLRSDDTAVYYCARDVDYGTGSGYWGQGTLVTVSSGGGGSGGGGSGGGGSSYELTQPPSVSVSPGQTARITCSGDALPKQYAYWYQQKPGQAPVMVIYKDTERPSGIPERFSGSSSGTKVTLTISGVQAEDEADYYCQSADNSITYRVFGGGTKVTVLAAGSDQEPKSSDKTHTCPPCPAPELLGGPSVFLFPPKPKDTLMISRTPEVTCEVVDVSHEDPEVKFNWYVDGVEVHNAKTKPREEQYNSTYRVVSVLTVLHQDWLNGKEYKCKVSNKALPAPIEKTISKAKGQPREPQVYVLPPSREEMTKNQVSLLCLVKGFYPSDIAVEWESNGQPENNYLTWPPVLDSDGSFFLYSKLTVDKSRWQQGNVFSCSVMHEALHNHYTQKSLSLSPGK
heavy: QVQLVESGGGVVQPGRSLRLSCAASGFTFSSYGMHWVRQAPGKGLEWVAVIWYDGSYKYYADSVKGRFTISRDNSKNTLYLQMNSLRAEDTAVYYCAREEAPENWDYALDVWGQGTTVTVSSASTKGPSVFPLAPSSKSTSGGTAALGCLVKDYFPEPVTVSWNSGALTSGVHTFPAVLQSSGLYSLSSVVTVPSSSLGTQTYICNVNHKPSNTKVDKKVEPKSCDKTHTCPPCPAPELLGGPSVFLFPPKPKDTLMISRTPEVTCEVVDVSHEDPEVKFNWYVDGVEVHNAKTKPREEQYNSTYRVVSVLTVLHQDWLNGKEYKCKVSNKALPAPIEKTISKAKGQPREPQVYVYPPSREEMTKNQVSLTCLVKGFYPSDIAVEWESNGQPENNYKTTPPVLDSDGSFALVSKLTVDKSRWQQGNVFSCSVMHEALHNHYTQKSLSLSPGK
light: [no letters for about 100 residues][no letters for about 120 residues]
B3: PD-1/LAG3 Bi-specific Construct C: aPD1 1353-G10 Vk1-39LC scFvFc zwB V262E; aLAG3 1449-G09.2 Fab zwA V262E (bispecific antibody, human IgG1, kappa)
scFv: EVQLVQSGAEVKKPGASVKVSCKASGYRFPHYGISWVRQAPGQGLEWMGWISAYNGNTNYAQKLQGRVTMTTDTSTNTAYMELRSLRSDDTAVYYCARDVDYGTGSGYWGQGTLVTVSSGGGGSGGGGSGGGGSDIQLTQSPSSLSASVGDRVTITCSGDALPKQYAYWYQQKPGKAPKLLIYKDTERPSGVPSRFSGSSSGTKVTLTISSLQPEDFATYYCQSADNSITYRVFGGGTKVEIKAAGSDQEPKSSDKTHTCPPCPAPELLGGPSVFLFPPKPKDTLMISRTPEVTCEVVDVSHEDPEVKFNWYVDGVEVHNAKTKPREEQYNSTYRVVSVLTVLHQDWLNGKEYKCKVSNKALPAPIEKTISKAKGQPREPQVYVLPPSREEMTKNQVSLLCLVKGFYPSDIAVEWESNGQPENNYLTWPPVLDSDGSFFLYSKLTVDKSRWQQGNVFSCSVMHEALHNHYTQKSLSLSPGK
heavy: QVQLVESGGGVVQPGRSLRLSCAASGFTFSSYGMHWVRQAPGKGLEWVAVIWYDGSYKYYADSVKGRFTISRDNSKNTLYLQMNSLRAEDTAVYYCAREEAPENWDYALDVWGQGTTVTVSSASTKGPSVFPLAPSSKSTSGGTAALGCLVKDYFPEPVTVSWNSGALTSGVHTFPAVLQSSGLYSLSSVVTVPSSSLGTQTYICNVNHKPSNTKVDKKVEPKSCDKTHTCPPCPAPELLGGPSVFLFPPKPKDTLMISRTPEVTCEVVDVSHEDPEVKFNWYVDGVEVHNAKTKPREEQYNSTYRVVSVLTVLHQDWLNGKEYKCKVSNKALPAPIEKTISKAKGQPREPQVYVYPPSREEMTKNQVSLTCLVKGFYPSDIAVEWESNGQPENNYKTTPPVLDSDGSFALVSKLTVDKSRWQQGNVFSCSVMHEALHNHYTQKSLSLSPGK
light: [no letters for about 100 residues][no letters for about 120 residues]

For this experiment, the target named is cynomolgus LAG3 expressed on the cell surface (293T or CHO cells) (cynomolgus monkey). Kind of experiment: flow cytometry cell binding on CHO cells expressing cynomolgus LAG3; PE anti-human IgG detection; one site-specific binding with Hill slope fit.
The molecule B1 came in with a Bmax of 5070 MFI and a Kd of 1.2 nM.

On to B2, for which the Bmax was 5280 MFI and the Kd was found to be 1.9 nM.

Consider B3, for which the Bmax turned out to be 4880 MFI and the Kd came out at 1.9 nM.

For orientation: Kd means the constant that tells how readily two partners part at equilibrium.
